Measured values: the supplement of paper PMC11060735
Where “and” joins values, the source holds several entries; their conditions need not be identical. Equal entries are not always repeated. Structures can show the parent of a compound that is named as a salt. Among all 1,800 compounds or so, about 50 (3%) showed activity. This is one part of the list.
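Also: fibroblasts sorted 14 days after bleomycin, GFP+ and GFP− mixed 1:1 in 384-well plates (GFP− as in-well control), imaged after Hoechst and NucView530 staining, reference wells lacked compound.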

These compounds were tested on mouse p16Ink4a+/- lung fibroblasts (INKBRITE, bleomycin-injured) (assay: percentage of GFP+ (p16Ink4a+) fibroblasts among all cells in well; higher = less depletion of p16Ink4a+ cells, active = 20 or less). Conditions: 1 µM; 3 days.
`CCCc1cc(C(N)=S)ccn1` [Protionamide, Ektebin] was tested, and the “percentage of GFP+” value was inactive: 43.9%.
For `COc1ccc(S(=O)(=O)Nc2cccnc2Nc2ccc(O)cc2)cc1`, the “percentage of GFP+” value was inactive: 23%.
`C[C@H]1[C@H](OC(=O)CCC(=O)O)O[C@@H]2O[C@@]3(C)CC[C@H]4[C@H](C)CC[C@@H]1[C@@]24OO3` [Artesunate] was tested, and the “percentage of GFP+” value was inactive: 29.5%.
For `Cc1cccc(Nc2ccccc2C(=O)O)c1C` [Mefenamic Acid], the “percentage of GFP+” value was inactive: 48.5%.
For `C[C@@H]1CN(c2c(F)c(N)c3c(=O)c(C(=O)O)cn(C4CC4)c3c2F)C[C@H](C)N1` [Sparfloxacin], the “percentage of GFP+” value was inactive: 37.7%.
`COc1cc2c(c(OC)c1OC)-c1c(cc3c(c1OC)OCO3)C[C@@H](C)[C@@H](C)C2` [Schisandrin B] was tested, and the “percentage of GFP+” value was inactive: 46.8%.
With `COc1ccc(COc2cc3oc(=O)c4cc(C(C)O)ccc4c3cc2OC)cc1` (stereo not drawn) [Palomid] the “percentage of GFP+” value was inactive: 45.4%.
For `Cc1cc(O)nc(S)n1` [Methylthiouracil], the “percentage of GFP+” value was inactive: 48.2%.
With `CC[C@H](C)C(=O)O[C@H]1C[C@H](O)C=C2C=C[C@H](C)[C@H](CC[C@@H](O)C[C@@H](O)CC(=O)O)[C@H]21` [Pravastatin] the “percentage of GFP+” value was inactive: 57.1%.
For `CCN(CC)CCCCNc1ncc2cc(-c3cc(OC)cc(OC)c3)c(NC(=O)NC(C)(C)C)nc2n1`, the “percentage of GFP+” value was inactive: 43.9%.
`C=C1C[C@@]2(O)O[C@@]3(C[C@H]2C(C)C)[C@@H](C)CC[C@@H]13` [Curcumol] was tested, and the “percentage of GFP+” value was inactive: 40.5%.
In the case of `Nc1nc(Nc2ccc(S(N)(=O)=O)cc2)nn1C(=O)c1c(F)cccc1F`, the “percentage of GFP+” value is reported as inactive: 53.6%.
In the case of `CC(C)CC(=O)Nc1[nH]nc2c1CN(C(=O)C1CCN(C)CC1)C2(C)C`, the “percentage of GFP+” value is reported as inactive: 35.4%.
`CCOC(=O)[C@H](CCc1ccccc1)N[C@@H](C)C(=O)N1[C@H](C(=O)O)C[C@@H]2CCC[C@@H]21` [Ramipril] was tested, and the “percentage of GFP+” value was inactive: 38.7%.
In the case of `OCCN1C[C@H](O)[C@@H](O)[C@H](O)[C@H]1CO` [Miglitol], the “percentage of GFP+” value is reported as inactive: 41.2%.
For `CC(=O)OCC[N+](C)(C)C` [Acetylcholine], the “percentage of GFP+” value was inactive: 41.3%.
For `Cc1c(C(=O)NN2CCCCC2)nn(-c2ccc(Cl)cc2Cl)c1-c1ccc(I)cc1`, the “percentage of GFP+” value was inactive: 42.4%.
`C[C@]12CCC(=O)C=C1CC[C@@H]1[C@@H]2[C@@H](O)C[C@@]2(C)[C@H]1CC[C@]2(O)C(=O)CO` [Hydrocortisone] was tested, and the “percentage of GFP+” value was inactive: 38.5%.
For `O=C(CCCN1CCC(O)(c2ccc(Cl)cc2)CC1)c1ccc(F)cc1` [Haloperidol], the “percentage of GFP+” value was inactive: 33.8%.
For `COc1c(C)c2c(c(O)c1C/C=C(\C)CCC(=O)OCCN1CCOCC1)C(=O)OC2` [Mycophenolate Mofetil], the “percentage of GFP+” value was inactive: 24%.
`COC(=O)c1ccc2c(/C(=N/c3ccc(N(C)C(=O)CN4CCN(C)CC4)cc3)c3ccccc3)c(O)[nH]c2c1` [Nintedanib] was tested, and the “percentage of GFP+” value was inactive: 25.4%.
In the case of `COc1ccc(-c2oc3c(CC=C(C)C)c(OC4O[C@H](CO)[C@@H](O)[C@H](O)[C@H]4O)cc(O)c3c(=O)c2OC2O[C@@H](C)[C@H](O)[C@@H](O)[C@H]2O)cc1` (stereo partly drawn) [Icariin], the “percentage of GFP+” value is reported as inactive: 50.1%.
`CC1=C(/C=C/C(C)=C\C=C\C(C)=C/C(=O)O)C(C)(C)CCC1` [Isotretinoin] was tested, and the “percentage of GFP+” value was inactive: 38.7%.
In the case of `CN(C)c1cc(NC(=O)CNC(C)(C)C)c(O)c2c1C[C@H]1C[C@H]3[C@H](N(C)C)C(=O)C(C(N)=O)=C(O)[C@@]3(O)C(=O)C1=C2O` [Tigecycline], the “percentage of GFP+” value is reported as inactive: 44.9%.
For `CCOC(=O)Nc1ccc(NCc2ccc(F)cc2)nc1N` [Flupirtine], the “percentage of GFP+” value was inactive: 48.5%.
For `Brc1c(NC2=NCCN2)ccc2nccnc12` [Brimonidine], the “percentage of GFP+” value was inactive: 48.4%.
`CCC(CC)CC1(C(=O)Nc2ccccc2SC(=O)C(C)C)CCCCC1` [Dalcetrapib] was tested, and the “percentage of GFP+” value was inactive: 37.6%.
For `CC(=O)O[C@]1(C(C)=O)CC[C@H]2[C@@H]3C[C@H](C)C4=CC(=O)CC[C@]4(C)[C@H]3CC[C@@]21C` [Medroxyprogesterone Acetate], the “percentage of GFP+” value was inactive: 46.5%.
In the case of `O=S(=O)(NCCNC/C=C/c1ccc(Br)cc1)c1cccc2cnccc12`, the “percentage of GFP+” value is reported as inactive: 44.2%.
`C[C@H](CCC(=O)O)[C@H]1CC[C@H]2[C@@H]3CC[C@@H]4C[C@H](O)CC[C@]4(C)[C@H]3CC[C@]12C` [Lithocholic acid] was tested, and the “percentage of GFP+” value was inactive: 51.6%.
In the case of `NC(CO)C(=O)NNCc1ccc(O)c(O)c1O` (stereo not drawn) [Benserazide], the “percentage of GFP+” value is reported as inactive: 43%.
With `Nc1nc(O)c2ncn(CCC(CO)CO)c2n1` [Penciclovir] the “percentage of GFP+” value was inactive: 46.8%.
In the case of `CC1=C(/C=C/C(C)=C/C=C/C(C)=C/C(=O)O)C(C)(C)CCC1` [Tretinon, Tretinoin], the “percentage of GFP+” value is reported as inactive: 36.4%.
For `O=C1Nc2ccc(I)cc2/C1=C/c1cc(Br)c(O)c(Br)c1`, the “percentage of GFP+” value was inactive: 44.9%.
With `Cc1[nH]c(/C=C2\C(=O)Nc3ccc(S(=O)(=O)N(C)c4cccc(Cl)c4)cc32)c(C)c1C(=O)N1CCN(C)CC1` the “percentage of GFP+” value was inactive: 53.1%.
With `CC(C(=O)O)c1ccc(C(=O)c2cccs2)cc1` (stereo not drawn) [Suprofen] the “percentage of GFP+” value was inactive: 38.5%.
`CCOc1cc2ncc(C#N)c(Nc3ccc(OCc4ccccn4)c(Cl)c3)c2cc1NC(=O)/C=C/CN(C)C` [Neratinib] was tested, and the “percentage of GFP+” value was inactive: 39.2%.
For `Fc1ccc([C@@H]2CCNC[C@H]2COc2ccc3c(c2)OCO3)cc1` [Paroxetine], the “percentage of GFP+” value was inactive: 42.3%.
`Cn1c(=O)c2nc[nH]c2n(C)c1=O` [Aminophylline, Theophylline] was tested, and the “percentage of GFP+” value was inactive: 44.7%.
`CCn1cc(C(=O)O)c(=O)c2cc(F)c(N3CCNCC3)nc21` [Enoxacin] was tested, and the “percentage of GFP+” value was inactive: 39%.
With `CN[C@H]1CC[C@@H](c2ccc(Cl)c(Cl)c2)c2ccccc21` [Sertraline] the “percentage of GFP+” value was inactive: 51.8%.
`CCc1c2c(nc3ccc(OC(=O)N4CCC(N5CCCCC5)CC4)cc13)-c1cc3c(c(=O)n1C2)COC(=O)[C@]3(O)CC` [Irinotecan, Irinotecan Hydrochloride (trihydrate)] was tested, and the “percentage of GFP+” value was inactive: 36.1% and inactive: 37.1%.
In the case of `CO/C(O)=C1\C(C)=NC(C)=C(C(=O)OCC(C)C)C1c1ccccc1[N+](=O)[O-]` (stereo not drawn) [Nisoldipine], the “percentage of GFP+” value is reported as inactive: 42.2%.
